Here are results for 40 sequences from the supplement of paper PMC6531468.

Some of the results follow. Read counts after selection give these values, which scatter widely. Scores sum up all selected molecules that hold the word; the word was not tested alone.

This experiment deals with IMP3 KH1-4. The experiment in a line: 6-mer SELEX enrichment z-score vs GST control; IMP3 is the RNA-binding protein IGF2BP3; higher = more enriched by binding. As to conditions: construct: KH1-4 (164-579); SELEX round: R4. How it is done: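 SELEX-seq with GST-tagged IMP3 KH1-4 (Pro164-Lys579) and an N40 RNA pool, round 4. 6-mer z-score of sequence-tag enrichment normalised to the corresponding GST SELEX round; RNA k-mers written as DNA (T for U).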
Chain of IMP3 KH1-4 (chain, as listed by the source): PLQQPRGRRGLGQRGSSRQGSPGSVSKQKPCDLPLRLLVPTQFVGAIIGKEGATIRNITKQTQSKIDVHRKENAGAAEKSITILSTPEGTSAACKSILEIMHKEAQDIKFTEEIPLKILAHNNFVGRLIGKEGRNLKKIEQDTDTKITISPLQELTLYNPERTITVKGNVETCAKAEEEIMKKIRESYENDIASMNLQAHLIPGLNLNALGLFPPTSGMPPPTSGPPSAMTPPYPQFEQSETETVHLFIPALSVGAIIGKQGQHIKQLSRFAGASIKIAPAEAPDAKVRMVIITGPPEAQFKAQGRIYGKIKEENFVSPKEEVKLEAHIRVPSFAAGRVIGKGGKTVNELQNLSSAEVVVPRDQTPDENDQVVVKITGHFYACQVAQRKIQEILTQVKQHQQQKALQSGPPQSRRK
For CTTTTG, the “6-mer SELEX enrichment z-score” value is 0.098.

Consider GACCAG, for which the “6-mer SELEX enrichment z-score” value was -0.442.

GGCCTA: the “6-mer SELEX enrichment z-score” value was -0.02.

On to GCAGCT, for which the “6-mer SELEX enrichment z-score” value was determined as 0.031.

AGGCGA: the “6-mer SELEX enrichment z-score” value was -0.063.

Turning to TTTCAG, the “6-mer SELEX enrichment z-score” value is 0.374.

For the sequence CAATAA, the “6-mer SELEX enrichment z-score” value was determined as 1.51.

Consider GTGGTC, for which the “6-mer SELEX enrichment z-score” value was -0.073.

For TCGAGT, the “6-mer SELEX enrichment z-score” value is -1.01.

With CCAGCG, the “6-mer SELEX enrichment z-score” value is -2.24.

On to CATTTG, for which the “6-mer SELEX enrichment z-score” value stood at 0.415.

As for GGCTGA, the “6-mer SELEX enrichment z-score” value was -0.217.

GCTGGT: the “6-mer SELEX enrichment z-score” value is -0.135.

In the case of ATGAGC, the “6-mer SELEX enrichment z-score” value was -3.08.

For the sequence GCTTAA, the “6-mer SELEX enrichment z-score” value was 0.085.

As to CTGTAT, the “6-mer SELEX enrichment z-score” value turned out to be 0.481.

For the sequence TCGTAT, the “6-mer SELEX enrichment z-score” value was -0.095.

Take ACATGA: the “6-mer SELEX enrichment z-score” value stood at 1.88.

With GAAGGC, the “6-mer SELEX enrichment z-score” value amounted to 0.047.

As to GTTAAC, the “6-mer SELEX enrichment z-score” value was -0.577.

As for TTGGTA, the “6-mer SELEX enrichment z-score” value was -0.358.

In the case of ATGCCC, the “6-mer SELEX enrichment z-score” value was -1.39.

As to CTACAT, the “6-mer SELEX enrichment z-score” value came out at 1.22.

As to TGTATG, the “6-mer SELEX enrichment z-score” value amounted to 0.647.

Take TTTGCA: the “6-mer SELEX enrichment z-score” value stood at 0.879.

On to TGCATT, for which the “6-mer SELEX enrichment z-score” value was determined as 0.468.

For CGAAGA, the “6-mer SELEX enrichment z-score” value was -0.824.

As to CACAGT, the “6-mer SELEX enrichment z-score” value worked out at 0.861.

Turning to GATGAC, the “6-mer SELEX enrichment z-score” value came to 0.349.

As to TGGGAA, the “6-mer SELEX enrichment z-score” value came to 0.235.

Take GCGAAC: the “6-mer SELEX enrichment z-score” value is -1.41.

As to TACATG, the “6-mer SELEX enrichment z-score” value was found to be 1.47.

For the sequence CATGAC, the “6-mer SELEX enrichment z-score” value is 0.769.

On to GTCTGC, for which the “6-mer SELEX enrichment z-score” value was -0.025.

Turning to TCGTGC, the “6-mer SELEX enrichment z-score” value is -0.631.

Regarding ACTCTA, the “6-mer SELEX enrichment z-score” value is -0.35.

Take GCGCTG: the “6-mer SELEX enrichment z-score” value is -0.417.

As for ACGGAG, the “6-mer SELEX enrichment z-score” value was -0.126.

Take CCGGGG: the “6-mer SELEX enrichment z-score” value was determined as 0.268.

Take CGATCG: the “6-mer SELEX enrichment z-score” value was -1.25.
